The text below walks through data of article PMC4336329 (PLoS ONE, 2015).

Out of some 310,000 compounds screened, about 14,000 (4.5%) showed an effect of 50% or more. Effects have a minus sign here. Some of the results follow.
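Note: peak tail current of the secondary pulse compared with the same well before compound.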

In this test the target is human ether-à-go-go-related gene (hERG) potassium channel (human, UniProt Q12809). The test can be described thus: primary screen, population patch clamp on CHO cells stably expressing hERG.
Sequence of human ether-à-go-go-related gene (hERG) potassium channel (Q12809 whole entry, looked up): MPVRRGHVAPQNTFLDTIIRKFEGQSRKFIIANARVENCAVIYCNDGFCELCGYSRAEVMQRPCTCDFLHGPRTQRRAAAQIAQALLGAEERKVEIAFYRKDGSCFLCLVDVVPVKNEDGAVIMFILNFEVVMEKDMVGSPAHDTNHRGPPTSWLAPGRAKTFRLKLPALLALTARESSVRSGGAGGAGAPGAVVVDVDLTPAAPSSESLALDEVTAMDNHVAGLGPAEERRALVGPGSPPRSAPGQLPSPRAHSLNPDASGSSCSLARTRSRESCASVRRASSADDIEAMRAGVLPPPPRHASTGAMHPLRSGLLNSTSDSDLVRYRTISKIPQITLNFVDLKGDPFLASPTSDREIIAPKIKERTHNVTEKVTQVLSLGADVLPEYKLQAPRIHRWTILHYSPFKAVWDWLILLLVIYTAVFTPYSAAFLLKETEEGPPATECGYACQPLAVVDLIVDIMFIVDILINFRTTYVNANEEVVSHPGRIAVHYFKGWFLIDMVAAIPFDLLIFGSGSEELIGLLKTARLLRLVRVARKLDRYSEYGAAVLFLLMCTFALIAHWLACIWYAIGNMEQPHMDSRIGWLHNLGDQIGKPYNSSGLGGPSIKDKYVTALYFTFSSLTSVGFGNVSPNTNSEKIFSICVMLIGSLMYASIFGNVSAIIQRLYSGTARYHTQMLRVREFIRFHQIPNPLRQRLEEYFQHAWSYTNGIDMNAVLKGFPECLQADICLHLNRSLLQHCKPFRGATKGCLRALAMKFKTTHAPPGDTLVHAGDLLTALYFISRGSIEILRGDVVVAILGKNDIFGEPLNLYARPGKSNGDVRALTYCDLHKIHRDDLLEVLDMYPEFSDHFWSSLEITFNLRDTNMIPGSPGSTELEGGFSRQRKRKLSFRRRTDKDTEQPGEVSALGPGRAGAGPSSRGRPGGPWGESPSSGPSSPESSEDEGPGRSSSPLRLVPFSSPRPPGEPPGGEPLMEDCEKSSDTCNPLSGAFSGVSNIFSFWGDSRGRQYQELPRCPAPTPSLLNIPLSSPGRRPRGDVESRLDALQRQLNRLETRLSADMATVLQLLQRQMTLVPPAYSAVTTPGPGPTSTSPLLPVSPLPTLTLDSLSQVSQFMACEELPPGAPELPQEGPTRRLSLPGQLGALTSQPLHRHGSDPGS
On to `Cc1nc(SCc2ccc([N+](=O)[O-])cc2)n[nH]1`, for which the “hERG current change (%, negative = inhibition) at 10uM” value is given as 2.06%.

`CCC(Sc1nnnn1C)C(=O)Nc1ccc(C(C)=O)cc1` (centres unmarked): the “hERG current change (%, negative = inhibition) at 10uM” value is given as 3.53%.

For the compound `O=C(CN1CCCC1)Nc1ccc(Br)cc1[N+](=O)[O-]`, the “hERG current change (%, negative = inhibition) at 10uM” value stood at 3.99%.

With `COc1ccccc1OCCCn1cc(C#N)c2ccccc21`, the “hERG current change (%, negative = inhibition) at 10uM” value is recorded as -11.8%.

As to `CCOC(=O)c1c(CSc2ccc(C)cc2)oc2ccc(O)cc12`, the “hERG current change (%, negative = inhibition) at 10uM” value is -1.59%.

As for `Cc1ccc(S(=O)(=O)NCC(C)n2cncn2)cc1` (centres unmarked), the “hERG current change (%, negative = inhibition) at 10uM” value was -0.384%.

With `COc1ccc(C(CNC(=S)NCc2ccccc2)N2CCCC2)cc1` (centres unmarked), the “hERG current change (%, negative = inhibition) at 10uM” value is -28.4%.

Take `C#CCNC(=O)C1=C[C@@H](C(C)(C)C)C[C@@H](OCc2ccc(CO)cc2)O1`: the “hERG current change (%, negative = inhibition) at 10uM” value is listed as 10.8%.

As to `CCn1c(COc2cccc(C)c2)nnc1SCC(=O)N1CCCC1`, the “hERG current change (%, negative = inhibition) at 10uM” value is -14.9%.

For `CCCCC(C(=O)N/N=C/c1ccccn1)C(=O)N/N=C/c1ccccn1`, the “hERG current change (%, negative = inhibition) at 10uM” value is recorded as 8.01%.

Turning to `Cc1nnc(SCC(=O)N2CCCc3ccccc32)[nH]c1=O`, the “hERG current change (%, negative = inhibition) at 10uM” value is reported as 9.48%.

Turning to `O=[N+]([O-])c1ccc(C(O)CN2CCOCC2)cc1` (centres unmarked), the “hERG current change (%, negative = inhibition) at 10uM” value amounted to 18.5%.

Consider `Cc1noc(NS(=O)(=O)c2ccc(NC(=O)Cc3ccc([N+](=O)[O-])cc3)cc2)c1C`, for which the “hERG current change (%, negative = inhibition) at 10uM” value was found to be 13.3%.

With `COc1ccc(N2CC(C)Cn3c2nc2c3c(=O)n(Cc3ccccc3)c(=O)n2C)c(OC)c1` (centres unmarked), the “hERG current change (%, negative = inhibition) at 10uM” value is listed as -39.9%.

Regarding `COc1ccc(-c2ccc(C#N)c(SCC(=O)OCc3ccccc3)n2)cc1OC`, the “hERG current change (%, negative = inhibition) at 10uM” value was -2.31%.

As for `NNC(=O)c1cc2ccccc2cc1NS(=O)(=O)c1ccccc1`, the “hERG current change (%, negative = inhibition) at 10uM” value stood at 13.1%.

In the case of `O=c1[nH]c(=O)n(C2CCCCCC2)c(O)c1C=NCc1cccnc1`, the “hERG current change (%, negative = inhibition) at 10uM” value is -9.79%.

As for `Cc1ccc(Cn2cnc3ccccc32)cc1`, the “hERG current change (%, negative = inhibition) at 10uM” value turned out to be 3.41%.

For `CCC(NC(=O)C1CCCC1)c1ccccc1` (centres unmarked), the “hERG current change (%, negative = inhibition) at 10uM” value was 17.9%.

With `Cc1nc2ccc(NC(=O)c3ccco3)cc2nc1C`, the “hERG current change (%, negative = inhibition) at 10uM” value is on record as 2.94%.

Consider `Cc1ccc(-c2ccc(S(=O)(=O)N3CCCC3)cc2)cc1`, for which the “hERG current change (%, negative = inhibition) at 10uM” value came out at 23.9%.

As for `COC(=O)c1ccc(Oc2nc(NC(C)(C)C)nc(N3CCOCC3)n2)cc1`, the “hERG current change (%, negative = inhibition) at 10uM” value is given as -16.1%.

For `O=C(Nc1nnc(S(=O)(=O)N2CCN(c3ccc(F)cc3)CC2)s1)c1ccco1`, the “hERG current change (%, negative = inhibition) at 10uM” value is recorded as 14.9%.

`O=C(Cn1nc(-c2ccccc2)oc1=O)OCC(=O)c1ccc(F)c(F)c1`: the “hERG current change (%, negative = inhibition) at 10uM” value is given as 3.18%.

For the compound `Clc1ccc(-c2cn(-c3ccc(Cl)cc3)c3[n+]2CCCCC3)cc1.[Br-]`, the “hERG current change (%, negative = inhibition) at 10uM” value was -52.7%.

As for `O=C(NCCN1CCOCC1)c1ccc([N+](=O)[O-])cc1[N+](=O)[O-]`, the “hERG current change (%, negative = inhibition) at 10uM” value is recorded as -0.151%.

As to `Cc1cc(Nc2cccc(Br)c2)c2ccccc2n1`, the “hERG current change (%, negative = inhibition) at 10uM” value is -86.2%.

`CC(Oc1ccc(Cl)cc1Cl)C(=O)Nc1ccncc1` (centres unmarked): the “hERG current change (%, negative = inhibition) at 10uM” value is on record as -43.9%.

Consider `CCOC(=O)C1CCN(C(=O)c2cc3c(-c4ccc(OC)c(OC)c4)nn(C)c3s2)CC1`, for which the “hERG current change (%, negative = inhibition) at 10uM” value was -17%.

With `Oc1cccc(-c2nc3ccccc3s2)c1`, the “hERG current change (%, negative = inhibition) at 10uM” value is listed as -3.6%.

As for `COC(=O)c1sccc1N/N=C/c1cccc(Oc2ccccc2)c1`, the “hERG current change (%, negative = inhibition) at 10uM” value is recorded as -7.09%.

With `CC1(c2ccc3c(c2)OCO3)NC(=O)N(CC(=O)Nc2ccc(N3CCOCC3)cc2)C1=O` (centres unmarked), the “hERG current change (%, negative = inhibition) at 10uM” value was 14.1%.

For the compound `O=C(c1ccc(Cl)cc1[N+](=O)[O-])N1CCc2ccccc2C1`, the “hERG current change (%, negative = inhibition) at 10uM” value is reported as 4.37%.

Consider `N#CC1=C(N)Oc2nc(-c3ccccc3)[nH]c2C1c1cccnc1` (centres unmarked), for which the “hERG current change (%, negative = inhibition) at 10uM” value was -1.47%.

As to `CN(C1CCCCC1)C(CNS(=O)(=O)c1ccc(Cl)cc1)c1ccccc1` (centres unmarked), the “hERG current change (%, negative = inhibition) at 10uM” value amounted to 11.9%.

Take `O=C1NCCCC1C(=O)N/N=C/c1ccccc1O` (centres unmarked): the “hERG current change (%, negative = inhibition) at 10uM” value worked out at 9.69%.

With `O=C(c1ccccc1)n1c(=O)cc[nH]c1=O`, the “hERG current change (%, negative = inhibition) at 10uM” value worked out at 12.1%.

Consider `COc1ccc(Cl)cc1NC(=O)CSc1nnc(COc2ccccc2)n1N`, for which the “hERG current change (%, negative = inhibition) at 10uM” value is -5.96%.

As to `CCCCN1C(=S)NC[C@@H]1Cc1cccc2ccccc12`, the “hERG current change (%, negative = inhibition) at 10uM” value is reported as 1.69%.

Regarding `COc1ccc(/C=N/Nc2nc(-c3cccc(S(=O)(=O)N4CCCC4)c3)cs2)c(OC)c1`, the “hERG current change (%, negative = inhibition) at 10uM” value is -10.2%.

Take `Cc1ccccc1-c1oc(C)c(C)[n+]1[O-].Cl`: the “hERG current change (%, negative = inhibition) at 10uM” value came to 6.03%.

For the compound `CCOc1ccc(N(C(=O)c2cc3ccccc3oc2=O)C2C=CS(=O)(=O)C2)cc1` (centres unmarked), the “hERG current change (%, negative = inhibition) at 10uM” value is recorded as -2.96%.

Turning to `CCCCNC(=O)c1onc(CSc2ccc(F)cc2)c1C(=O)O`, the “hERG current change (%, negative = inhibition) at 10uM” value was 4.82%.

Turning to `Cc1ccc(CNC(=O)c2cccc(S(C)(=O)=O)c2)cc1`, the “hERG current change (%, negative = inhibition) at 10uM” value is on record as -0.651%.

For `Oc1csc(Cc2nc(-c3ccccc3F)cs2)n1`, the “hERG current change (%, negative = inhibition) at 10uM” value worked out at 18.9%.

In the case of `O=C(Nc1cccc(C(=O)O)c1)/C(=C\c1ccc2c(c1)OCO2)NC(=O)c1ccco1`, the “hERG current change (%, negative = inhibition) at 10uM” value is given as 24.3%.

In the case of `CCSc1nnc(-c2ccccc2NC(C)=O)c(=O)[nH]1`, the “hERG current change (%, negative = inhibition) at 10uM” value is reported as -15.5%.

For `CCCCN(C)CC(O)Cn1cc(/C=C/C(=O)c2ccc(C)cc2)c2ccccc21` (centres unmarked), the “hERG current change (%, negative = inhibition) at 10uM” value is listed as -41.4%.

With `COc1ccc(/C(C)=N\NC(=O)c2ccc(-c3ccccc3)cc2)c(F)c1`, the “hERG current change (%, negative = inhibition) at 10uM” value turned out to be 2.79%.

As to `C=CCOc1ccc(-c2nc3c(c(=O)[nH]c(=O)n3Cc3ccccc3)n2CCCOC)cc1`, the “hERG current change (%, negative = inhibition) at 10uM” value came to 5.96%.

Take `Cc1ccccc1/C=N/NC(=O)c1sccc1C`: the “hERG current change (%, negative = inhibition) at 10uM” value amounted to 3.39%.

With `CN1CCN(S(=O)(=O)c2ccc(NC(=S)NC(=O)C(C)(C)C)cc2)CC1`, the “hERG current change (%, negative = inhibition) at 10uM” value stood at 1.03%.

For `CCCCc1ccc(NC(=O)CSc2nc(=O)n(CCCN3CCOCC3)c3c2CCC3)cc1`, the “hERG current change (%, negative = inhibition) at 10uM” value was -64.5%.

Consider `Cc1ccc(S(=O)(=O)N2CCN(C(=O)c3n[nH]c(=O)c4ccccc34)CC2)cc1`, for which the “hERG current change (%, negative = inhibition) at 10uM” value is recorded as -43.5%.

Take `CC(=O)N1CCN(C(=O)C2(NC(=O)Nc3ccc(C)cc3)CCCCC2)CC1`: the “hERG current change (%, negative = inhibition) at 10uM” value is given as 17.1%.

As to `COc1cc(C(=O)O[C@H]2C/C(C)=C/CC[C@]3(C)O[C@@H]3C(O)C2C(C)C)cc(OC)c1OC` (some centres unmarked), the “hERG current change (%, negative = inhibition) at 10uM” value was found to be 10.3%.
